This passage reports survival results from PubChem BioAssay AID463173 (ICCB-Longwood Screening Facility, Harvard Medical School, 2010).

Out of some 52,000 compounds screened, about 1,700 (3.3%) were called active. Cut-off read from the data, not from the text of the source: active = survival mostly below about 52% (no sharp cut-off); inactive = mostly above about 56%. The list shows a part of the results.

In this assay the test system is Wild type. The assay can be described thus: S. aureus survival, RN4220 and DeltatarO strains – OD600, teichoic acid synthesis inhibitors, primary screen (AID 463173). Particulars: S. aureus RN4220 wild type/DeltatarO growth, OD600, 18 h, active compounds read low, screened at 18.75 µg/mL (by protocol).
On to `CCCCNC(=O)CSc1nc2ccccc2nc1Cc1ccccc1`, for which the survival is inactive: 77%.

As for `C=CCNC(=O)CN1CCN(C)CC1`, the survival is inactive: 99%.

Consider `CC(C)Cc1nn2c(=O)cc(O)nc2s1`, for which the survival is inactive: 110%.

In the case of `Cc1ccc(N2CC(NC(=O)C3CCCC3)CC2=O)cc1` (stereo not given), the survival is inactive: 55%.

As for `CC(C)CCNC(=O)c1ccc(NC(=O)N2CCCCc3ccccc32)cc1`, the survival is inactive: 86%.

With `CCOc1ccc(Nc2c(S(=O)(=O)c3ccccc3)cnc3ccc(CC)cc23)cc1`, the survival was active: 4%.

In the case of `Cc1ccc(C(=O)c2cn(CC(=O)Nc3ccc4c(c3)OCCO4)c3nc(C)ccc3c2=O)cc1`, the survival was inactive: 83%.

Regarding `COc1cccc(N2CCN(C(=O)Cn3ncc4c3-c3ccccc3OC4)CC2)c1`, the survival is inactive: 72%.

For `Oc1cccc2c1NCCC2`, the survival is inactive: 113%.

`CC(C)CC(NC(=O)C1CCC(C)CC1)C(=O)OCC(=O)c1ccc(Cl)cc1` (stereo not given): the survival was inactive: 139%.

With `C#CC(CCN1CCCCC1)(OC)c1ccccc1` (stereo not given), the survival is inactive: 103%.

As for `O=C(CSc1nc2ccccc2n1Cc1ccccc1)NCc1ccccc1`, the survival is inactive: 78%.

`CSc1oc(-c2ccc(F)cc2)nc1S(=O)(=O)c1ccc(Br)cc1`: the survival is inactive: 54%.

Take `Cc1cc(C)cc(OC(C)C(=O)Nc2nc3c(s2)CCCC3)c1` (stereo not given): the survival is inactive: 78%.

With `O=S(=O)(c1ccccc1)N1CCc2ccccc2C1`, the survival was inactive: 106%.

Regarding `Cc1cc(NC(=O)S(=O)(=O)c2ccccc2)ccc1NC(=O)c1ccco1`, the survival is inactive: 112%.

Take `COc1ccc(NC(=O)c2ccco2)cc1NC(=O)c1ccc(OC(C)C)cc1`: the survival is inactive: 116%.

Regarding `CCOC(=O)C1=C(CNCc2ccc(Cl)cc2)NC(=O)NC1c1ccccc1` (stereo not given), the survival is inactive: 102%.

`CC(=O)N1c2ccccc2CC1C(=O)N1CCN(c2ccccc2F)CC1` (stereo not given): the survival is inactive: 71%.

As to `COc1cccc(/C=C(\C#N)c2nc3ccccc3c(=O)[nH]2)c1OC`, the survival is inactive: 83%.

With `CCCC(C(=O)Nc1cc(C)c(Cl)cc1OC)N1Cc2ccccc2C1=O` (stereo not given), the survival is inactive: 71%.

For `COc1cc(NC(=O)Cn2cc(S(=O)(=O)N3CCC(C)CC3)c3ccccc3c2=O)cc(OC)c1OC`, the survival is inactive: 75%.

Consider `COc1ccc(Oc2ncnc3c2oc2ccccc23)cc1`, for which the survival was inactive: 47%.

Regarding `COc1ccc(N2CCN(CNC(=O)c3ccccc3)CC2)cc1`, the survival was inactive: 106%.

`CCOC(=O)c1ccc(NC(=O)C2CCCN(c3cnccn3)C2)cc1` (stereo not given): the survival was inactive: 76%.

On to `COc1cn(CC(=O)Nc2cccc(C)c2)c(CN2CCCCC2)cc1=O`, for which the survival is inactive: 80%.

`CCOc1ccc(Nc2ncnc3onc(-c4ccc(Cl)cc4)c23)cc1`: the survival was inactive: 66%.

`COc1ccc(CCNC(=O)Cn2nc(-c3ccc(Cl)cc3)ccc2=O)cc1OC`: the survival was inactive: 63%.

`Cc1nc2sccn2c(=O)c1S(=O)(=O)Nc1cccc(Cl)c1C`: the survival was inactive: 74%.

Regarding `Cc1ccc(OCC(=O)Nc2ccc(C(=O)OCc3cc(=O)n4ccsc4n3)cc2)cc1C`, the survival was inactive: 73%.

In the case of `CC(=O)c1ccc(N2CCN(S(=O)(=O)c3ccc(-c4cnc(C5CC5)o4)cc3)CC2)cc1`, the survival was inactive: 72%.

Consider `COC(CN1C(=O)c2ccccc2C1=O)OC`, for which the survival was inactive: 95%.

Regarding `Cc1ccc(NC(=O)N2CCC(CN3CCCCC3)CC2)c(Cl)c1`, the survival was inactive: 73%.

Regarding `C=CCn1cc(/C=C(/C#N)C(=O)OCC)c2ccccc21`, the survival is inactive: 96%.

In the case of `CCn1cc(/C=C(\NC(=O)c2ccc(OC)c(OC)c2)C(=O)NCCCn2ccnc2)c2ccccc21`, the survival is inactive: 111%.

Turning to `CCOC(=O)c1cc(-c2ccc(OC)cc2)n(CCC(=O)NCCc2ccc(OCC)c(OCC)c2)c1C`, the survival was inactive: 73%.

Take `Cc1ccccc1Nc1nnc(-c2ccc(C)c(S(=O)(=O)NCC3CCCO3)c2)c2ccccc12` (stereo not given): the survival is inactive: 72%.

Regarding `CC(C)(C)OC(=O)N1CCC(c2c(C(=O)N3CCN(c4ncccn4)CC3)cnn2-c2ccc(F)cc2)CC1`, the survival is active: -1%.

Take `CCOC(=O)c1c(-c2ccc(OC)cc2)oc2ccc(OCc3ccc(F)cc3F)cc12`: the survival is inactive: 42%.

Turning to `Cc1ccc(N2CCN(C(=O)CCS(=O)(=O)c3cc4c(cc3Cl)NC(=O)CO4)CC2)c(C)c1`, the survival was inactive: 56%.

With `CC1CCN(c2nc3c(S(=O)(=O)c4cccc(Cl)c4)nnn3c3ccsc23)CC1`, the survival was inactive: 90%.

For the compound `COc1cc([N+](=O)[O-])ccc1NC(=O)N1CCC2(CC1)Nc1cc(F)ccc1-n1cccc12`, the survival was inactive: 64%.

As to `Cc1ccc(C2C(=O)N(C3CCCCCC3)CC(=O)N2CCC2=CCCCC2)cc1` (stereo not given), the survival is inactive: 68%.

On to `CN(C)c1ccc(CNC(=O)C2CCN(C(=O)c3ccc(-n4ccc5ccccc54)s3)CC2)cc1`, for which the survival is inactive: 59%.

As for `c1cncc(CNC2CCCc3ccccc32)c1` (stereo not given), the survival is inactive: 110%.

For `Cc1cn2c(=O)cc(COC(=O)c3ccc(NC(=O)c4ccc(C(C)(C)C)cc4)cc3)nc2s1`, the survival is active: -3%.

Turning to `CCC(Oc1ccccc1)C(=O)Nc1ccc(Cl)cn1` (stereo not given), the survival was inactive: 112%.

Regarding `COc1ccc(C2=Nc3ccccc3N(CC(=O)Nc3cccc(C(C)=O)c3)C(=O)C2)cc1`, the survival is inactive: 136%.

With `COc1ccc(CNS(=O)(=O)c2csc(C(N)=O)c2)cc1OC`, the survival is inactive: 77%.

With `CCOC(=O)c1ccc(NC(=O)C(CC)Sc2nncn3c2cc2oc(C)cc23)cc1` (stereo not given), the survival is inactive: 68%.

For `CCCCNc1nc2c(-c3cccc(Br)c3)nnn2c2ccccc12`, the survival is inactive: 92%.

For the compound `CCC1=C(c2ccc(C)cc2)S(=O)(=O)N=C1N1CCC(C(=O)NCCc2cccc(OC)c2)CC1`, the survival is inactive: 72%.

As to `COc1cccc2c1cc1c(=O)n(CC(=O)NCCCN3CCN(C)CC3)nc(C)n12`, the survival is inactive: 88%.

In the case of `COc1ccc(OCCCn2c(C)nc3cc(C)c(C)cc32)cc1`, the survival is inactive: 67%.

For `Cn1nnnc1SCCCNCc1cc(Cl)ccc1OCc1ccccc1`, the survival is inactive: 84%.

For the compound `O=C1Nc2c(c(=O)[nH]c(=O)n2-c2ccc(F)cc2)C1(NS(=O)(=O)c1ccc(Cl)cc1)C(F)(F)F` (stereo not given), the survival is inactive: 67%.

With `COC(=O)c1ccc(OCC2c3cc(OC)c(OC)cc3CCN2C(=O)Cc2ccc(OC)c(OC)c2)cc1` (stereo not given), the survival was inactive: 79%.

Consider `CC(C)c1nn2c(=O)cc(COC(=O)c3ccc4c(c3)OCO4)nc2s1`, for which the survival is inactive: 69%.

`CC(=O)N1CCc2c(sc3c2c(=O)n(-c2ccccc2)c(=O)n3CC(=O)c2ccc(F)cc2)C1`: the survival was inactive: 91%.

With `COc1cc(C(=O)Nc2nnc(CC(C)(C)C)s2)cc(OC)c1OC`, the survival was inactive: 106%.

On to `CCc1ccc(NC(=O)C2CCCN2S(=O)(=O)c2cccc3nsnc23)cc1` (stereo not given), for which the survival is inactive: 116%.

In the case of `Cc1cn2c(=O)c(S(=O)(=O)NCCc3ccc(Cl)cc3)c(C)nc2s1`, the survival is inactive: 88%.

With `COc1ccc(-c2nc3sc(CCNC(=O)c4ccc(C(C)(C)C)cc4)c(C)n3n2)cc1`, the survival was inactive: 127%.

For the compound `CCOc1ccccc1C(=O)Nc1cc2c(cc1C)n(C)c(=O)c(=O)n2C`, the survival is inactive: 57%.

`CCOc1ccc(C(=O)Nc2ccc(Cl)c(-c3nc4cc(C)cc(C)c4o3)c2)cc1`: the survival is inactive: 83%.

Consider `CCc1ccc2occ(CC(=O)NCc3ccccc3)c2c1`, for which the survival is inactive: 122%.

As for `CC(C)c1ccc(NC(=O)c2cc(S(=O)(=O)NCCC3=CCCCC3)ccc2F)cc1`, the survival was inactive: 78%.

In the case of `COc1ccc(NC(=O)Cc2ccc(NC(=O)N3CCCCc4ccccc43)cc2)c(OC)c1`, the survival was inactive: 60%.

For `CCN(CC)CCNC(=O)Cn1cnc2sc(C)c(S(=O)(=O)N3CCC(C)CC3)c2c1=O`, the survival is inactive: 79%.

Regarding `CCOC(=O)C1CCC(CN(Cc2ccc(OC)cc2)S(=O)(=O)c2ccc(F)c(C(=O)Nc3cc(Cl)ccc3OC)c2)CC1` (stereo not given), the survival is inactive: 75%.

As for `Nc1nc(OC(C(F)(F)F)C(F)(F)F)nc(OC(C(F)(F)F)C(F)(F)F)n1`, the survival was inactive: 66%.

`COc1ccc(CNC(=O)CN(C)S(=O)(=O)c2ccc3[nH]c4c(c3c2)CCCC4)cc1`: the survival was inactive: 67%.

Regarding `Cn1cc(-c2cc3n(n2)CCC(=O)N3CCCC(=O)NCc2ccccc2)c2ccccc21`, the survival was inactive: 76%.

As to `Cc1ccc(CN2C(=O)N(c3ccc(C)c(Cl)c3)S(=O)(=O)c3ccccc32)cc1`, the survival is inactive: 75%.

With `Cc1ccc(NC(=O)C2CCN(S(=O)(=O)c3c(C)noc3C)CC2)cc1C`, the survival was inactive: 85%.

As for `Cc1ccc(NC(=O)C(C)Sc2n[nH]c(-c3ccccc3O)n2)cc1` (stereo not given), the survival is inactive: 83%.

For `COc1cccc(NC(=O)CN2C(=O)C3(SCC(=O)N3c3cc(C)cc(C)c3)c3ccccc32)c1` (stereo not given), the survival is inactive: 73%.

As for `COC(=O)c1cc2oc(C)cc2n1Cc1ccc(Cl)cc1`, the survival was inactive: 72%.

Take `N#Cc1ccc(NC(=O)COCc2cc(-c3ccc(F)cc3)on2)cc1`: the survival is inactive: 63%.

Regarding `O=C(Nc1ccc(Cl)cc1C(F)(F)F)c1cc(S(=O)(=O)NCc2ccccc2)ccc1F`, the survival was inactive: 134%.

Regarding `CCc1ccc(CNC(=O)c2ccc(CS(=O)(=O)Cc3ccccc3C)o2)cc1`, the survival was inactive: 71%.

`CCOc1ccc(CNC(=O)c2cnc(SC)nc2C)cc1`: the survival was inactive: 94%.

Regarding `COC(=O)c1c(-c2cccs2)csc1NC(=O)COc1ccc(C(C)C)cc1`, the survival was inactive: 73%.

Turning to `CCOC(=O)C1CCN(C(=O)c2nn(-c3ccc(C)cc3)c(=O)n(C)c2=O)CC1`, the survival was inactive: 66%.

In the case of `COc1ccc(CNC(=O)CCS(=O)(=O)c2ccc3c(c2)CC(C)N3C(=O)C2CC2)cc1` (stereo not given), the survival is inactive: 76%.

As for `CCN(CC)C(=O)C1CCN(C(=O)c2cnn(-c3ccccc3)c2-n2cccc2)CC1`, the survival is inactive: 75%.

As for `CCOC(=O)CSc1nc2ccccc2n2c(C)nnc12`, the survival was inactive: 79%.

On to `CC1=C(C(=O)OC2CCCC2)C(c2cccc(Cl)c2Cl)CC(=O)N1` (stereo not given), for which the survival is inactive: 90%.

As for `CCOc1ccc(-n2ccnc2SCC(=O)Nc2ccc(OC)cc2OC)cc1`, the survival is inactive: 74%.

As to `Cc1ccc(Cl)cc1N1CCN(C(=O)c2cn(C)c3ccc(S(=O)(=O)N4CCCC4)cc3c2=O)CC1`, the survival was inactive: 138%.
